# Source: the supplement of paper PMC10037445
# The full ranking holds about 2,900 compounds; the median of “IRF Lucia reporter activity, fold change vs agonist alone” is about 0.9, and the highest 2% start at about 2.8. The list shows a part of the results.
# Tests used:
# RAW-Dual [1] = experiment: IRF Lucia reporter activity, fold change vs agonist alone; cytotoxicity flag (confluency mask): not cytotoxic; higher = enhanced IRF activity
# Procedure, shortened: (§1)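 Library stock was pin-tooled at 50 nL into 384-well plates of RAW-Dual macrophages (50,000 cells/well, DMEM), followed 1 h later by a PRR agonist, and the cells were kept at 37 °C, 5% CO2. Supernatant collected after 20 hours was read for IRF by QuantiLuc luminescence and for NF-κB by QuantiBlue absorbance at 620 nm. Reporter activity is fold change over agonist-alone wells, and a well counted as cytotoxic when its IncuCyte confluency was below 70% of agonist controls in both mask sets.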
# RAW-Dual [2] = experiment: IRF Lucia reporter activity, fold change vs agonist alone; higher = enhanced IRF activity; details: cytotoxicity flag (confluency mask): not cytotoxic, agonist: MPLA (TLR4) […]
# Procedure, shortened: as §1
# RAW-Dual [3] = experiment: IRF Lucia reporter activity, fold change vs agonist alone; cytotoxicity flag (confluency mask): cytotoxic (confluency <70% of control); higher = enhanced IRF activity
# Procedure, shortened: as §1
# [4] = agonist: 3'3'-cGAMP (STING) 10 ug/mL
# [5] = library stock concentration (final ~1000-fold dilution): 10 mM
structure (smiles),measurement,setting,value
CCCCCCOC(=O)c1cc(O)c(=O)c2c(O)c(O)c(OC)cc2c1 (library stock concentration (final ~1000-fold dilution): 10 mM),IRF Lucia reporter activity,RAW-Dual [1]; [4],0.0307
same,IRF Lucia reporter activity,RAW-Dual [1]; agonist: LPS (TLR4) 0.1 ug/mL,0.492
CS(=O)(=O)Nc1cc2occ(NC=O)c(=O)c2cc1Oc1ccccc1 (library stock concentration (final ~1000-fold dilution): 10 mM),IRF Lucia reporter activity,RAW-Dual [1]; [4],1.04
same,IRF Lucia reporter activity,RAW-Dual [1]; agonist: LPS (TLR4) 0.1 ug/mL,0.975
CS(=O)(=O)Nc1cc2occ(NC=O)c(=O)c2cc1Oc1ccccc1,IRF Lucia reporter activity,RAW-Dual [2]; [5],1.08
CC(C)NC(=O)COc1cccc(-c2nc(Nc3ccc4[nH]ncc4c3)c3ccccc3n2)c1 (library stock concentration (final ~1000-fold dilution): 10 mM),IRF Lucia reporter activity,RAW-Dual [1]; [4],0.0593
same,IRF Lucia reporter activity,RAW-Dual [1]; agonist: LPS (TLR4) 0.1 ug/mL,1.42
COc1ccc2c3c1OC1CC(O)C=CC31CCN(C)C2 (stereo unspecified),IRF Lucia reporter activity,RAW-Dual [2]; [5],1.16
COc1ccc2c3c1OC1CC(O)C=CC31CCN(C)C2 (stereo unspecified) (library stock concentration (final ~1000-fold dilution): 10 mM),IRF Lucia reporter activity,RAW-Dual [1]; [4],1.1
same,IRF Lucia reporter activity,RAW-Dual [1]; agonist: LPS (TLR4) 0.1 ug/mL,1.24
O=C(COc1cccc2c(=O)[nH]ccc12)c1ccccc1 (library stock concentration (final ~1000-fold dilution): 10 mM),IRF Lucia reporter activity,RAW-Dual [1]; [4],0.685
same,IRF Lucia reporter activity,RAW-Dual [1]; agonist: LPS (TLR4) 0.1 ug/mL,0.623
C=C(CC)C(=O)c1ccc(OCC(=O)O)c(Cl)c1Cl (library stock concentration (final ~1000-fold dilution): 10 mM),IRF Lucia reporter activity,RAW-Dual [1]; [4],0.648
same,IRF Lucia reporter activity,RAW-Dual [1]; agonist: LPS (TLR4) 0.1 ug/mL,0.785
C=C(CC)C(=O)c1ccc(OCC(=O)O)c(Cl)c1Cl,IRF Lucia reporter activity,RAW-Dual [2]; [5],0.855
CCc1c2c(nc3ccc(O)cc13)-c1cc3c(c(=O)n1C2)COC(=O)C3(O)CC (stereo unspecified),IRF Lucia reporter activity,RAW-Dual [2]; [5],1.65
CCc1c2c(nc3ccc(O)cc13)-c1cc3c(c(=O)n1C2)COC(=O)C3(O)CC (stereo unspecified) (library stock concentration (final ~1000-fold dilution): 10 mM),IRF Lucia reporter activity,RAW-Dual [1]; [4],1.24
same,IRF Lucia reporter activity,RAW-Dual [1]; agonist: LPS (TLR4) 0.1 ug/mL,1.29
CCOCCn1c(C2CCN(CCc3ccc(C(C)(C)C(=O)O)cc3)CC2)nc2ccccc21,IRF Lucia reporter activity,RAW-Dual [2]; library stock concentration (final ~1000-fold dilution): 2 mM,1.14
CCOCCn1c(C2CCN(CCc3ccc(C(C)(C)C(=O)O)cc3)CC2)nc2ccccc21 (library stock concentration (final ~1000-fold dilution): 2 mM),IRF Lucia reporter activity,RAW-Dual [1]; [4],0.971
same,IRF Lucia reporter activity,RAW-Dual [1]; agonist: LPS (TLR4) 0.1 ug/mL,1.1
CN1CCN(CC/C=C2/c3ccccc3Sc3ccc(S(=O)(=O)N(C)C)cc32)CC1 (library stock concentration (final ~1000-fold dilution): 10 mM),IRF Lucia reporter activity,RAW-Dual [3]; [4],0.409
same,IRF Lucia reporter activity,RAW-Dual [3]; agonist: LPS (TLR4) 0.1 ug/mL,0.885
CC1OC(OC2C(CO)OC(OC3C(CO)OC(O)C(O)C3O)C(O)C2O)C(O)C(O)C1NC1C=C(CO)C(O)C(O)C1O (stereo unspecified),IRF Lucia reporter activity,RAW-Dual [2]; [5],0.939
CC1OC(OC2C(CO)OC(OC3C(CO)OC(O)C(O)C3O)C(O)C2O)C(O)C(O)C1NC1C=C(CO)C(O)C(O)C1O (stereo unspecified) (library stock concentration (final ~1000-fold dilution): 10 mM),IRF Lucia reporter activity,RAW-Dual [1]; [4],0.927
same,IRF Lucia reporter activity,RAW-Dual [1]; agonist: LPS (TLR4) 0.1 ug/mL,0.756
